Test results taken from the RNAGym collection of RNA variant scans (doi:10.7554/elife.90254).
Read counts are not given, so values of variants with three or more changes are uncertain.

B1: LINE1-mini (parent)
chain: GGCAGAGCUCAACACAGCGUGGCAAAGUGGCUGUGGCUAGACUGCC

Variants of: B1
Experiment: self-cleavage, relative activity (ratio to wild type); higher = more cleavage; in vitro, sequencing; the parent is a self-cleaving ribozyme

Variant	self-cleavage
C8A U9G G30A	0.03
C8G G33U U38G	0.03
C8G G21U U32C	0.01
C8A U9G C18A G21C A39U	0.02
C8G C23G G33C A39G	0.08
C8G A26G G36U	0.21
C8G U9G A25U	0.02
C8G C10G G17A C31A	0.02
C8G U9C G30C	0.01
C8G G19C G35U	0.04
C8G C18U U32G C37U	0.01
C8G G19U G21U G30U U38G C46A	0.01
C8G A39U C46A	0.01
C8G G19A U34G G35A G44U	0
C8A U28G G33A	0.06
C8G U20A G21U C42G	0.1
C8A U9G C23A A26G G40C	0.01
C8G C10A U28C G35U	0.02
C8G G21A G36A	0.54
C8G A16U C45U	0.09
C8G C18G G22A G40U	0.05

Variant	self-cleavage
C8G U9A C10U C18U G27A G44U	0.03
C8G U9A C23U G40A U43G	0.38
C8G C15U G36U C46A	0.09
C8G G17C G19A	0.05
C8G U9C A39C G44U	0.08
C8G A16U C23G G33U G40C	0
C8G G29A C37U G40A	0.04
C8G G33U C45A	0.24
C8G G19A G30C C31G G36A	0
C8G U9C G29U	0.04
C8G G19A U28A G30C C31G A41G	0
C8G C37U G44A	0.01
C8G A12U G30A	0.06
C8G C13A A41G	0.1
C8G C10A C15A A16G G40A U43A	0
C8G U9C C42A	0.02
C8G G21U G29U	0.05
C8G C18U C23A C37A	0.15
C8G C15G G44A C45U	0.05
C8G G19U G33C	0.01
C8G C15G U28C	0.02

Variant	self-cleavage
C8G G27A U38A	0.38
C8G G21U A24U A25U	0.01
C8G G19A U28A	0.05
C8G G17U G22C A24U G35C	0.05
C8G A14U G19C	0.03
C8G C23A U28A U38G	0
C8G G30U U34C	0.11
C8G G17C G30C C37A C42G	0.05
C8G U20A A39C	0.05
C8G C10G C15U U38A U43A C45U	0.01
C8G C13U C31A	0.04
C8G C18U G35U	0.04
C8G U9A U34A G36C C45G	0.08
C8G C15A U20A A26G U38C U43C	0.01
C8G A12G U38A	0.18
C8G C18G G19C A25U	0.23
C8G G17U C46A	0.02
C8G C18G G44U	0
C8G C13U G17U	0.04
C8A U20A A25U U34C	0.15
C8G C15U G35C G40A	0.07

Variant	self-cleavage
C8G C10G C23A U38C G40U	0
C8G G21A A26U U32C G40C	0.04
C8G C10U C23G A25U	0.02
C8G U28A G30U	0.16
C8G U9A A11U	0
C8G A12G C18A U43A	0.02
C8G G30U A39G	0.06
C8G C23G G36A C45A	0.02
C8G U20A U34A	0.11
C8A U9C U28A	0.06
C8G C18G G21U G36U	0.03
C8G A16C C42A	0.02
C8G A14C C18U	0.03
C8G A16G G17A U38C	0.12
C8A U9A C23G A25U C42G C46A	0.79
C8G A12U G21A A26C	0.18
C8G A11U G19U C23U	0.02
C8G C13G U32G G35C C42G	0.12
C8G C15U G33U C37G	0.05
C8G A16G C46U	0.01
